# Data: the supplement of paper PMC8728848
# The list shows a part of the results.
# B1: Gal 7 (Homo sapiens) (protein)
# chain: MSNVPHKSSLPEGIRPGTVLRIRGLVPPNASRFHVNLLCGEEGGSDAALHFNPRLDTSEVVFNSKEGGSWGREERGPGVPFGRGQPFEVLIIASDDGFKAVVGDAQYHHFRHRLPLARVRLVEVGGDVQLDSVRIF
# Columns and labels:
# Experiment in all cases: glycan array binding signal (z-score within array); higher = stronger binding
# Details in all cases: glycan notation: IUPAC condensed, linker removed
# Neu5Ac(a2-3)Gal = biological target: Neu5Ac(a2-3)Gal
# Outline: (§1)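 Glycan array data came from 3228 arrays in the Consortium for Functional Glycomics database, and only arrays with an available protein sequence were kept. Glycan names were put into IUPAC-condensed notation, and columns mapping to the same glycan were averaged. The binding signal is a within-array Z-score, averaged across arrays of one protein sequence run at different concentrations or buffers and across linkers. A negative Z-score can be read as non-binding.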
# [1] = biological target: Neu5Ac(a2-3)Gal(b1-3)GalNAc
# Outline: as §1
# [2] = biological target: Neu5Ac(a2-3)Gal(b1-3)GalNAc(b1-3)Gal(a1-4)Gal(b1-4)Glc
# Outline: as §1
# [3] = biological target: Neu5Ac(a2-3)Gal(b1-3)GalNAc(b1-4)Gal(b1-4)Glc
# Outline: as §1
# [4] = biological target: Neu5Ac(a2-3)Gal(b1-3)GalNAc(b1-4)[Neu5Ac(a2-3)]Gal(b1-4)Glc
# Outline: as §1
# [5] = biological target: Neu5Ac(a2-3)Gal(b1-3)GalNAc(b1-4)[Neu5Ac(a2-8)Neu5Ac(a2-3)]Gal(b1-4)Glc
# Outline: as §1
# [6] = biological target: Neu5Ac(a2-3)Gal(b1-3)GalNAc6S
# Outline: as §1
# [7] = biological target: Neu5Ac(a2-3)Gal(b1-3)GlcNAc
# Outline: as §1
# [8] = biological target: Neu5Ac(a2-3)Gal(b1-3)GlcNAc(b1-2)Man
# Outline: as §1
# [9] = biological target: Neu5Ac(a2-3)Gal(b1-3)GlcNAc(b1-2)Man(a1-3)[GlcNAc(b1-4)][Neu5Ac(a2-3)Gal(b1-3)GlcNAc(b1-2)Man(a1-6)]Man(b1-4)GlcNAc(b1-4)GlcNAc
# Outline: as §1
# [10] = biological target: Neu5Ac(a2-3)Gal(b1-3)GlcNAc(b1-2)Man(a1-3)[Neu5Ac(a2-3)Gal(b1-3)GlcNAc(b1-2)Man(a1-6)]Man(b1-4)GlcNAc(b1-4)GlcNAc
# Outline: as §1
# [11] = biological target: Neu5Ac(a2-3)Gal(b1-3)GlcNAc(b1-2)[Neu5Ac(a2-3)Gal(b1-3)GlcNAc(b1-4)]Man(a1-6)[Neu5Ac(a2-3)Gal(b1-3)GlcNAc(b1-2)Man(a1-3)]Man(b1-4)GlcNAc(b1-4)GlcNAc
# Outline: as §1
# [12] = biological target: Neu5Ac(a2-3)Gal(b1-3)GlcNAc(b1-3)Gal(b1-3)GlcNAc
# Outline: as §1
# [13] = biological target: Neu5Ac(a2-3)Gal(b1-3)GlcNAc(b1-3)Gal(b1-4)GlcNAc
# Outline: as §1
# [14] = biological target: Neu5Ac(a2-3)Gal(b1-3)GlcNAc(b1-3)GalNAc
# Outline: as §1
# [15] = biological target: Neu5Ac(a2-3)Gal(b1-3)GlcNAc(b1-6)GalNAc
# Outline: as §1
# [16] = biological target: Neu5Ac(a2-3)Gal(b1-3)GlcNAc6S
# Outline: as §1
# [17] = biological target: Neu5Ac(a2-3)Gal(b1-3)[Fuc(a1-4)]GlcNAc
# Outline: as §1
# [18] = biological target: Neu5Ac(a2-3)Gal(b1-3)[Fuc(a1-4)]GlcNAc(b1-3)Gal(b1-3)[Fuc(a1-4)]GlcNAc
# Outline: as §1
# [19] = biological target: Neu5Ac(a2-3)Gal(b1-3)[Fuc(a1-4)]GlcNAc(b1-3)Gal(b1-4)[Fuc(a1-3)]GlcNAc
# Outline: as §1
# [20] = biological target: Neu5Ac(a2-3)Gal(b1-3)[GlcNAc(b1-6)]GalNAc
# Outline: as §1
# [21] = biological target: Neu5Ac(a2-3)Gal(b1-3)[Neu5Ac(a2-3)Gal(b1-4)]GlcNAc
# Outline: as §1
# [22] = biological target: Neu5Ac(a2-3)Gal(b1-3)[Neu5Ac(a2-6)]GalNAc
# Outline: as §1
# [23] = biological target: Neu5Ac(a2-3)Gal(b1-3)[Neu5Ac(a2-6)]GlcNAc(b1-3)[Fuc(a1-3)[Gal(b1-4)]GlcNAc(b1-6)]Gal(b1-4)Glc
# Outline: as §1
# [24] = biological target: Neu5Ac(a2-3)Gal(b1-3)]Neu5Ac(a2-3)Gal(b1-4)]GlcNAc
# Outline: as §1
# Neu5Ac(a2-3)Gal(b1-4)Glc = biological target: Neu5Ac(a2-3)Gal(b1-4)Glc
# Outline: as §1
# [25] = biological target: Neu5Ac(a2-3)Gal(b1-4)GlcNAc
# Outline: as §1
# [26] = biological target: Neu5Ac(a2-3)Gal(b1-4)GlcNAc(b1-2)Man
# Outline: as §1
# [27] = biological target: Neu5Ac(a2-3)Gal(b1-4)GlcNAc(b1-2)Man(a1-3)[GlcNAc(b1-2)Man(b1-4)GlcNAc(b1-2)Man(a1-6)]Man(b1-4)GlcNAc(b1-4)GlcNAc
# Outline: as §1
# [28] = biological target: Neu5Ac(a2-3)Gal(b1-4)GlcNAc(b1-2)Man(a1-3)[GlcNAc(b1-4)][Neu5Ac(a2-3)Gal(b1-4)GlcNAc(b1-2)Man(a1-6)]Man(b1-4)GlcNAc(b1-4)GlcNAc
# Outline: as §1
# [29] = biological target: Neu5Ac(a2-3)Gal(b1-4)GlcNAc(b1-2)Man(a1-3)[Neu5Ac(a2-3)Gal(b1-4)GlcNAc(b1-2)Man(a1-6)]Man(b1-4)GlcNAc(b1-4)GlcNAc
# Outline: as §1
# [30] = biological target: Neu5Ac(a2-3)Gal(b1-4)GlcNAc(b1-2)Man(a1-3)[Neu5Ac(a2-3)Gal(b1-4)GlcNAc(b1-2)Man(a1-6)]Man(b1-4)GlcNAc(b1-4)[Fuc(a1-6)]GlcNAc
# Outline: as §1
# [31] = biological target: Neu5Ac(a2-3)Gal(b1-4)GlcNAc(b1-2)Man(a1-3)[Neu5Ac(a2-6)Gal(b1-4)GlcNAc(b1-2)Man(a1-6)]Man(b1-4)GlcNAc(b1-4)GlcNAc
# Outline: as §1
# [32] = biological target: Neu5Ac(a2-3)Gal(b1-4)GlcNAc(b1-2)[Neu5Ac(a2-3)Gal(b1-4)GlcNAc(b1-4)]Man(a1-3)[GlcNAc(b1-4)][Neu5Ac(a2-3)Gal(b1-4)GlcNAc(b1-2)[Neu5Ac(a2-3)Gal(b1-4)GlcNAc(b1-6)]Man(a1-6)]Man(b1-4)GlcNAc(b1-4)GlcNAc
# Outline: as §1
# [33] = biological target: Neu5Ac(a2-3)Gal(b1-4)GlcNAc(b1-2)[Neu5Ac(a2-3)Gal(b1-4)GlcNAc(b1-4)]Man(a1-3)[GlcNAc(b1-4)][Neu5Ac(a2-3)Gal(b1-4)GlcNAc(b1-4)Man(a1-6)]Man(b1-4)GlcNAc(b1-4)GlcNAc
# Outline: as §1
binder,measurement,setting,value
B1,glycan array binding signal (z-score),Neu5Ac(a2-3)Gal,-0.336
same,glycan array binding signal (z-score),[1],-0.257
same,glycan array binding signal (z-score),[2],-0.132
same,glycan array binding signal (z-score),[3],-0.289
same,glycan array binding signal (z-score),[4],-0.227
same,glycan array binding signal (z-score),[5],0.004
same,glycan array binding signal (z-score),[6],-0.315
same,glycan array binding signal (z-score),[7],0.294
same,glycan array binding signal (z-score),[8],-0.261
same,glycan array binding signal (z-score),[9],0.011
same,glycan array binding signal (z-score),[10],-0.231
same,glycan array binding signal (z-score),[11],-0.212
same,glycan array binding signal (z-score),[12],0.626
same,glycan array binding signal (z-score),[13],0.604
same,glycan array binding signal (z-score),[14],-0.297
same,glycan array binding signal (z-score),[15],-0.117
same,glycan array binding signal (z-score),[16],-0.003
same,glycan array binding signal (z-score),[17],-0.332
same,glycan array binding signal (z-score),[18],0.125
same,glycan array binding signal (z-score),[19],-0.197
same,glycan array binding signal (z-score),[20],-0.282
same,glycan array binding signal (z-score),[21],-0.264
same,glycan array binding signal (z-score),[22],0.007
same,glycan array binding signal (z-score),[23],-0.209
same,glycan array binding signal (z-score),[24],-0.286
same,glycan array binding signal (z-score),Neu5Ac(a2-3)Gal(b1-4)Glc,-0.201
same,glycan array binding signal (z-score),[25],-0.323
same,glycan array binding signal (z-score),[26],0.46
same,glycan array binding signal (z-score),[27],-0.355
same,glycan array binding signal (z-score),[28],-0.276
same,glycan array binding signal (z-score),[29],-0.267
same,glycan array binding signal (z-score),[30],0.214
same,glycan array binding signal (z-score),[31],-0.302
same,glycan array binding signal (z-score),[32],-0.271
same,glycan array binding signal (z-score),[33],-0.258
